Results as given in article PMC4336329 (PLoS ONE, 2015).
Among all 310,000 compounds or so, about 2,200 (0.71%) showed an effect of 50% or more. Effects have a minus sign here. Some of the results follow.

Molecular target: human ether-à-go-go-related gene (hERG) potassium channel (human, UniProt Q12809)
Assay: primary screen, population patch clamp on CHO cells stably expressing hERG

Chain of human ether-à-go-go-related gene (hERG) potassium channel (Q12809 whole entry, looked up): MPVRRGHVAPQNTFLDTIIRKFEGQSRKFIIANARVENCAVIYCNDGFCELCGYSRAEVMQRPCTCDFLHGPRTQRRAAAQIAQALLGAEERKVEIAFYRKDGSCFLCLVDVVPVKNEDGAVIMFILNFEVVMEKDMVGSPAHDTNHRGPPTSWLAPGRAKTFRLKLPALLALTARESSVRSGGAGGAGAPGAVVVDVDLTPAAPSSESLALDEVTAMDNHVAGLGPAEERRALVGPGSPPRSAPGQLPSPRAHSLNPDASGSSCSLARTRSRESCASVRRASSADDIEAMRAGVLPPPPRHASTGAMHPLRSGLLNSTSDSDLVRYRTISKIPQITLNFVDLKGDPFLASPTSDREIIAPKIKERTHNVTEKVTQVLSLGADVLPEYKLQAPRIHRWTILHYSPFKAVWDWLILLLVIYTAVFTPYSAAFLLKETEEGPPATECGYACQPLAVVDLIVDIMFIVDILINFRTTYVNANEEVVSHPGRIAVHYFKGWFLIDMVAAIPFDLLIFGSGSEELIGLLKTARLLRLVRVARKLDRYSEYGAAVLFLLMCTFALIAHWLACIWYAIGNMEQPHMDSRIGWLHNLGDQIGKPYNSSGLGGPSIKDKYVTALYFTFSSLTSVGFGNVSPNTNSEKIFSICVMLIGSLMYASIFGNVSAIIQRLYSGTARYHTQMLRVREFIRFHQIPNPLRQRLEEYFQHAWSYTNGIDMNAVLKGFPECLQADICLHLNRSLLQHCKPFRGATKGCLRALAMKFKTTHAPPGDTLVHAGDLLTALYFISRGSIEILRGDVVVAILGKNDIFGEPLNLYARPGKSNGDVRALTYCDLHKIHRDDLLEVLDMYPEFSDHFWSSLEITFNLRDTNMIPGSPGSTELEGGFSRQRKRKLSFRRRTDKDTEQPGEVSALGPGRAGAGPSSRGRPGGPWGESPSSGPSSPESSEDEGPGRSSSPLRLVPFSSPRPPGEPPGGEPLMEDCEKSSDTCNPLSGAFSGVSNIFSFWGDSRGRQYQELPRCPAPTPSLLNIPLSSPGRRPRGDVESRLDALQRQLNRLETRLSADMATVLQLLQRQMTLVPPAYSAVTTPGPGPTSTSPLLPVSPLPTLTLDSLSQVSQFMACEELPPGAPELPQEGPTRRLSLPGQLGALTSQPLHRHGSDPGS

Row | SMILES | hERG current change (%, negative = inhibition) at 1uM
1 | Cn1cccc1/C=N/n1c(-c2ccccc2)n[nH]c1=S | 8.01%
2 | Cc1ccc(S(=O)(=O)NCCCN(C)C)cc1.Cl | 1.55%
3 | COc1cccc(NC(=S)N2CCN(C)CC2)c1 | 7.73%
4 | Cc1nnc2n(C3CCCCC3)c(=O)c3c4c(sc3n12)COC(C)(C)C4 | 3.79%
5 | N#CC(/C(=N/S(=O)(=O)c1cccs1)c1ccccc1)c1nc2ccccc2[nH]1 (stereo not drawn) | 11.6%
6 | COC(=O)CSc1nnc2n1C(C)(C)Cc1ccccc1-2 | 7.32%
7 | Cn1c(SCC(=O)c2ccc3c(c2)NC(=O)CO3)nc2ccccc21 | 8.01%
8 | COC(=O)c1nnn(-c2nonc2N)c1COc1ccc(C=O)cc1OC | -1.8%
9 | CN(Cc1ccccc1)C(=O)CN(Cc1ccccc1)S(C)(=O)=O | 8.26%
10 | Cc1nc2ccc(Br)cn2c1C(=O)N/N=C\c1ccc(C(C)C)cc1 | 17.1%
11 | COCCCn1c(SCC(N)=O)nnc1-c1ccccc1 | 2.18%
12 | CC(=O)Cc1nsc(NC(=O)c2ccc(Cl)cc2Cl)n1 | 1.23%
13 | OCCN1CCN(c2ncnc3c2c(-c2ccccc2)cn3-c2ccc(F)cc2)CC1 | -7.44%
14 | Cc1ccc(C23CCC(=O)N2C(C(=O)O)CS3)c(C)c1 (stereo not drawn) | 13.4%
15 | Cc1[nH]c(C(=O)O)c(C#N)c1C(=O)c1ccccc1 | 14.8%
16 | Cc1c(Cl)cccc1NC(=S)NC(=O)CCN1C(=O)c2ccccc2C1=O | 6.66%
17 | Cc1ccc(NC(=S)N2CCN(Cc3ccccc3)CC2)c(C)c1 | 9.22%
18 | FC(F)(F)c1cccc(CNC(=S)Nc2ccccc2)c1 | 7.03%
19 | COCc1cc(=O)n2[nH]c(SC)nc2n1 | -12.9%
20 | CC(=O)Nc1cc(-c2ccc(Cl)cc2)nn1-c1ccccc1 | 10.1%
21 | Cc1ccc(C)c(NC(=S)N2CCC(NC(=O)c3ccc(F)cc3)CC2)c1 | 17.7%
22 | COC(=O)C(C)Oc1ccc2c(c1)O/C(=C\c1cccc(Br)c1)C2=O (stereo not drawn) | 1.18%
23 | O=C(NNC(=O)C1CCN(S(=O)(=O)c2cccc(C(F)(F)F)c2)CC1)C1CC1 | 7.48%

Row | SMILES | hERG current change (%, negative = inhibition) at 1uM
24 | CCCCC(CC)C(=O)Nc1ncc([N+](=O)[O-])s1 (stereo not drawn) | 5.38%
25 | Cc1cc(-c2nnc(CCC(=O)NCc3ccc(F)c(F)c3)o2)no1 | 13.6%
26 | O=S(=O)(NC1C2CC3CC(C2)CC1C3)c1ccccc1 (stereo not drawn) | 6.23%
27 | Cn1cnnc1Sc1ccc(C(=O)OCC(=O)NCC(F)(F)F)cc1[N+](=O)[O-] | 1.05%
28 | Cc1ccsc1/C=N/NC(=O)Cn1nc(C)c([N+](=O)[O-])c1C | 10.4%
29 | Cc1cc(C)cc(OCC(=O)Nc2ccc3c(c2)C(=O)c2ccccc2C3=O)c1 | 17.4%
30 | CC(=O)Nc1ccc(SCC(=O)c2cc(C)n(C)c2C)cc1 | 8.09%
31 | Cc1c(OCC(=O)N2C[C@H]3C[C@@H](C2)c2cccc(=O)n2C3)ccc2c3c(c(=O)oc12)CCCC3 | 2.19%
32 | CCn1cc([N+](=O)[O-])nc1C | 7.47%
33 | CCC1=NNC(=O)C(CC(=O)Nc2ccccc2)c2cc(OC)c(OC)cc21 (stereo not drawn) | 8.25%
34 | CCOC(=O)Cc1csc(SC(C)C(=O)Nc2ccc(NC(C)=O)cc2)n1 (stereo not drawn) | 4.01%
35 | O=S(=O)(NCc1ccccn1)c1ccccc1 | 13.6%
36 | CCOc1ccc(Br)cc1S(=O)(=O)NCc1ccncc1 | 12.1%
37 | N#CCc1c(C#N)c(N)nc(N2CCN(c3ccc(F)cc3)CC2)c1C#N | -10.4%
38 | S=C(Nc1ccccc1)Nn1cnnc1 | 0.218%
39 | O=C1C2CC=CCC2C(=O)N1c1ccc(NCCc2ccc(O)cc2)c([N+](=O)[O-])c1 (stereo not drawn) | -0.0463%
40 | Cc1ccc(-n2nc3c(=O)n(CCCC(=O)NCc4ccc(C)o4)nc(C)c3c2C)cc1 | 16.2%
41 | N#Cc1ccccc1Sc1ccccc1C(=O)Nc1ccc(Br)cc1 | 19%
42 | C=CCn1c(COc2ccc(F)cc2)nnc1SCC(=O)NC(=O)NCc1ccco1 | -4.04%
43 | O=C(NCc1ccc(OC(F)(F)F)cc1)C1CC2Cn3c(nc4ccccc43)C2N1Cc1ccccc1 (stereo not drawn) | -23.1%
44 | C=CCn1c(O)c(C(C)=NC2CCN(Cc3ccccc3)CC2)c(=O)[nH]c1=O | -11.7%
45 | CC(=O)N(CCN(C(C)=O)c1ccccc1)c1ccccc1 | 3.2%
46 | CCCCNC(=O)CC1N=C2c3ccccc3N=C(SCC(=O)Nc3cccc(OC)c3)N2C1=O (stereo not drawn) | 7.61%

Row | SMILES | hERG current change (%, negative = inhibition) at 1uM
47 | CN(C)c1ccc(S(=O)(=O)NCC(=O)OCC(=O)Nc2cc(Cl)cc(Cl)c2)cc1[N+](=O)[O-] | 9.38%
48 | O=C(NCN1C(=O)C2C3C=CC(C3)C2C1=O)Nc1nccs1 (stereo not drawn) | 14.7%
49 | Cc1c(NC(=O)c2cc(=O)[nH]c(=O)[nH]2)c(=O)n(-c2ccccc2)n1C | 5.24%
50 | Cl.O=C1CSC(c2ccc([N+](=O)[O-])cc2)N1CCN1CCCCC1 (stereo not drawn) | -44.8%
51 | CC(C)(C)n1nc2c(c1NC(=O)c1ccc(Br)o1)CS(=O)C2 (stereo not drawn) | 7.8%
52 | O=C(Nc1cccnc1)C1(c2ccc(Cl)cc2)CCCC1 | 4.42%
53 | COc1ccccc1C(=O)NCCc1nc2ccccc2n1C | 5.68%
54 | O=C(NC(Cc1c[nH]c2ccccc12)C(=O)N1CCOCC1)c1cccs1 (stereo not drawn) | 11.2%
55 | Cc1cc(C)c(C(=O)C(C)OC(=O)C2=COCCO2)cc1C (stereo not drawn) | 5.17%
56 | O=C(NN1CCOCC1)c1ccc(S(=O)(=O)N2CCCCC2)cc1 | 3.4%
57 | Cc1ccc(S(=O)(=O)NCc2ccccn2)cc1C | 7.3%
58 | CN1CCN(Cc2c(O)c(Cl)cc3c(-c4ccccc4)cc(=O)oc23)CC1 | 11.4%
59 | Cc1ccc2c(c1)c(C)cc[n+]2Cc1ccccc1.[Cl-] | 9.1%
60 | Cc1cc2cc(CCNC(=O)c3ccc(S(=O)(=O)N4CCOCC4)cc3)c(=O)[nH]c2cc1C | 14%
61 | O=C(CNC(=O)c1ccc(=O)[nH]c1)Nc1ccc(F)c(F)c1 | 13.1%
62 | Cc1ccc(S(=O)(=O)/N=c2\ccc(Cl)cn2C(F)F)cc1 | 7.56%
63 | COc1ccc(NC(=O)CN(c2ccc(OC)cc2)S(=O)(=O)c2ccc(OC)c(OC)c2)cc1 | 7.76%
64 | Cc1cc(C)cc(Oc2ccccc2/C=N\O)c1 | -4.76%
65 | CC1(C(=O)N2CCN(c3ccc([N+](=O)[O-])cc3)CC2)CC1(Cl)Cl (stereo not drawn) | -64.3%
66 | CC/C(C)=N/Nc1nc2sc3c(c2c(=O)[nH]1)CC(C)(C)OC3 | 2.47%
67 | COc1ccc(C2CC(c3cccs3)=Nc3ccccc3S2)cc1 (stereo not drawn) | -10.1%
68 | CCOC(=O)C(=CNc1ccc(NC2=NCC(C)(C)S2)cc1)C(=O)OCC | 4.88%
69 | Cc1ccc(Cl)cc1NC(=O)COC(=O)C1CCCCC1 | 8.25%

Row | SMILES | hERG current change (%, negative = inhibition) at 1uM
70 | COc1ccc(-n2cc(CNCCCn3ccnc3)c(-c3cccc(F)c3)n2)cc1 | -6.96%
71 | CN(C)CCCOC(=O)c1ccc(Cl)cc1 | 9.55%
72 | C=CCN1C(=O)CS/C1=C(\C#N)S(=O)(=O)c1ccc(C)cc1 | 0.686%
73 | COC(=O)CN1CCN(C(=O)c2ccc(F)cc2)c2ccccc2C1 | 10.2%
74 | O=C(O)CCn1cc(/C=C2\SC(=S)NC2=O)c(-c2ccccc2)n1 | 19.7%
75 | Cc1nn2c(=O)cc(CSc3nc4ccccc4[nH]3)nc2s1 | 13.7%
76 | Cc1cc(C(=O)N2CCN(c3ncccn3)CC2)c(C)o1 | 18.6%
77 | COc1ccc(CN2CCCCC2C)c(C)c1C (stereo not drawn) | 2.37%
78 | COc1cccc(CN2CC(C(=O)NCCOc3ccccc3)CCC2=O)c1 (stereo not drawn) | 11.7%
79 | CCN(CC)S(=O)(=O)c1ccc2[nH]cc(C(=O)NCCN3CCCCC3C)c(=O)c2c1 (stereo not drawn) | -9.38%
80 | COc1ccc(C(=O)c2c3ccc(OC)cc3[n+]([O-])n2Cc2ccc(C(N)=O)cc2)cc1 | 3.99%
81 | O=C(c1ccc(Cl)c(S(=O)(=O)N2CCc3ccccc3C2)c1)N1CCN(c2ccccc2)CC1 | 9.22%
82 | CNc1ccc2nnc(C(F)(F)C(F)(F)C(F)(F)F)n2n1 | 11.6%
83 | CC(C)NC(=O)NC(=O)CSc1nnc(-c2c[nH]c3ccccc23)o1 | 13.5%
84 | O=C(COc1ncnc2ccccc12)Nc1cccc([N+](=O)[O-])c1 | 1.36%
85 | Cc1cc(C)n(-c2nc(SCCN(C)C)c3c4c(sc3n2)COC(C)(C)C4)n1 | -30.4%
86 | O=C(CSc1nc2ccccc2o1)N1CCCC1 | 5.8%
87 | COC(=O)COc1ccc(NC(=O)C2CCCO2)cc1 (stereo not drawn) | 14.3%
88 | C/C(Cn1cnc([N+](=O)[O-])n1)=N\NC(=O)c1cccnc1 | 8.82%
89 | CCc1cc2cccc(C)c2nc1SCC(=O)NC1CCCC1 | 6.21%
90 | COc1ccc(F)cc1CN1CCN(CC(=O)Nc2ccccc2C(=O)NC2CC2)CC1 | -88.8%
